According to PubChem BioAssay AID757 (NMMLSC, 2007):
Hit rate of the full screen: of about 190,000 compounds, about 520 (0.27%) were called active. The inconclusive results got no clear call from the source; some entries with a clear call stand among them for comparison.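 How the source made its calls: active means GTP binding activity at least 20 points away from the 100% control level, either lower or higher; inconclusive means compound flagged as likely green fluorescent, judged across all proteins; inactive means the rest.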

The molecules below were run against Ras-related C3 botulinum toxin substrate 1 (Homo sapiens) (UniProt P63000) (assay: wildtype Rac1 GTP binding modulators, primary screen, biochemical, GST-Rac1 beads, flow cytometry, multiplex (AID 757)). Settings: fluorescent GTP binding, at 10 µM, actives lie on both sides, 0 = cold GTP competed, 100 = untreated.

Row | SMILES | GTP binding activity (% of control)
1 | O=C(CCNS(=O)(=O)c1ccc(Cl)cc1)NCc1ccccn1 | inconclusive: 109%
2 | Cc1ccc2nc(SCc3ccc([N+](=O)[O-])cc3)[nH]c2c1 | inconclusive: 99%
3 | CCC1CCCCN1C(=S)Nc1cccc(S(=O)(=O)N(C)C)c1 (configuration not stated) | inactive: 99%
4 | Cc1cc(NCCc2ccccc2F)n2ncnc2n1 | inconclusive: 99%
5 | O=C(NCCCN1CCOCC1)c1ccc(N2CCCC2)c([N+](=O)[O-])c1 | inactive: 99%
6 | O=C1c2oc3ccccc3c(=O)c2C(c2cccc(O)c2)N1c1ccccn1 (configuration not stated) | inactive: 106%
7 | O=C(CNC1CCCCC1)NCC1(c2ccccc2)CCCC1 | inactive: 98%
8 | O=C(NCCN1CCN(C(=O)c2cc3ccccc3oc2=O)CC1)c1cc2ccccc2oc1=O | inconclusive: 107%
9 | CCCC(=O)N1CCN(c2ccc(NC(=S)NC(=O)c3cccc(C)c3)cc2)CC1 | inconclusive: 100%
10 | CCOc1ccc(CN2CCN(Cc3ccon3)CC2CCO)cc1 (configuration not stated) | inactive: 99%
11 | O=C(CN1C(=O)C(=O)N(C2CCCC2)C1=O)Nc1ccc(N2CCOCC2)cc1 | inactive: 101%
12 | CC(C)N=C(NS(=O)(=O)c1ccccc1)C(Cl)(Cl)Cl | inactive: 105%
13 | COc1ccc(-n2cc(-c3ccc(C)cc3)[n+]3c2SCC3)cc1 | inactive: 103%
14 | COc1cccc(CN(C)CC(=O)Nc2sc3c(c2C#N)CCC3)c1OC | inconclusive: 90%
15 | COC(=O)c1cn(NC(=O)c2ccccc2[N+](=O)[O-])c(=O)c2ccccc12 | inactive: 96%
16 | CCC(C)C(=O)Nc1ccc(OC)cc1OC (configuration not stated) | inconclusive: 147%
17 | CC1=NC(=O)C(N=Nc2ccccc2C(=O)O)N1c1ccccc1 (configuration not stated) | active: 79%
18 | Fc1ccc(COc2ccc(/C=N/n3cnnc3)cc2)cc1 | inconclusive: 105%
19 | CCn1c(SCC(=O)NC2CCCc3ccccc32)nnc1-c1cccs1 (configuration not stated) | inconclusive: 103%
20 | Cn1c(-c2ccc(F)cc2)cnc1NCc1ccc(F)cc1 | inconclusive: 112%
21 | CCC(C)OC(=O)C1=C(C)OC23OC(N)=C(C#N)C12C(=O)c1ccccc13 (configuration not stated) | inactive: 102%
22 | c1ccc2c3c([nH]c2c1)C(C1CCCCC1)N(Cc1ncc[nH]1)CC3 (configuration not stated) | inactive: 96%
23 | Cc1nnc2ccc(-c3cccc(NC(=O)c4ccc(Br)o4)c3)nn12 | active: 79%

Row | SMILES | GTP binding activity (% of control)
24 | COc1ccc(N2CCN(CC(=O)Nc3cccc(S(=O)(=O)N4CCOCC4)c3)CC2)cc1 | inconclusive: 99%
25 | COc1ccc(S(=O)(=O)CC(O)CN2CCCC2=O)cc1 (configuration not stated) | inconclusive: 106%
26 | COc1ccc2cc3cc(C(=O)NCCc4ccc(OC)c(OC)c4)oc3nc2c1 | inconclusive: 94%
27 | Cc1nn(C)c2nc(-c3cccs3)cc(C(F)(F)F)c12 | inconclusive: 95%
28 | O=S(=O)(Nc1ccccn1)c1cccc(S(=O)(=O)c2ccc(Cl)cc2)c1 | inactive: 97%
29 | COC(=O)c1ccc(/C=N/Nc2nc(-c3ccc(Cl)cc3Cl)cs2)cc1 | active: 130% [activator]
30 | COc1cc(OC)c(-c2c3cc(O)c(=O)cc-3oc3cc(O)c(O)cc23)cc1OC | inconclusive: 195%
31 | Cc1cc(Oc2ccc(=O)n(C)n2)nc(=S)[nH]1 | inconclusive: 94%
32 | COc1ccc(O)c(-c2cc(-c3cccc(Br)c3)n[nH]2)c1 | inconclusive: 106%
33 | CCCN1C(=O)/C(=C/C=C2\N(CC)c3ccccc3C2(C)C)SC1=S | inconclusive: 123%
34 | O=C(CSCc1c(F)cccc1Cl)NCCSCc1ccco1 | inconclusive: 96%
35 | COC(=O)c1ccccc1NC1CC(=O)N(c2c(C)cccc2C)C1=O (configuration not stated) | inactive: 100%
36 | O=C(c1ccc2ncsc2c1)N1CCN(c2ccc(O)cc2)CC1 | inactive: 105%
37 | O=C(CNC(=O)c1cccs1)NCC(=O)OCc1ccc(Cl)cc1Cl | inconclusive: 103%
38 | N=c1c2c(-c3ccccc3)c(-c3ccccc3)n(Cc3ccco3)c2ncn1Cc1ccco1 | inconclusive: 105%
39 | O=C(c1ccccc1)c1nnc(-c2ccncc2)o1 | inconclusive: 108%
40 | O=C(O)C1CC(=O)N(c2ccc(OCc3ccc(Cl)cc3Cl)cc2)C1 (configuration not stated) | inconclusive: 87%
41 | COCc1cc(Sc2ccc(Cl)cc2)nc(-c2ccccc2)n1 | inconclusive: 93%
42 | Clc1ccc(SCCOCCN2CCCCC2)cc1 | inconclusive: 105%
43 | O=C(O)/C=C/c1cn(-c2ccccc2)nc1-c1cccs1 | inactive: 94%
44 | COc1cc(C)c(CNc2cccc(C)c2)cc1C | inconclusive: 107%
45 | COc1ccc(OCCN2C(=O)c3ccccc3C2=O)cc1 | active: 127% [activator]
46 | O=C(Nc1nc2ccccc2[nH]1)c1cc2ccccc2o1 | inconclusive: 88%

Row | SMILES | GTP binding activity (% of control)
47 | COc1ccc(Cc2nnc(N/N=C/c3ccc(O)cc3O)[nH]c2=O)cc1OC | inconclusive: 84%
48 | CN1CCN(C(=O)C23CC4CC(C2)CC(c2ccccc2)(C4)C3)CC1 | inactive: 98%
49 | COc1cccc(-c2nc(CS(=O)CC(=O)NCCCOC(C)C)c(C)o2)c1 (configuration not stated) | inconclusive: 101%
50 | CC1CCN(Cc2c(C(=O)O)nnn2-c2nonc2N)CC1 | inactive: 100%
51 | Cc1ccc(Nc2nnc(SC/C(O)=C(\C#N)c3nc4ccccc4[nH]3)s2)c(C)c1 | inconclusive: 100%
52 | O=C(N/N=C/c1ccc[nH]1)c1ccccc1OCc1ccccc1Cl | inconclusive: 87%
53 | CCOC(=O)c1cnc(SCC(=O)OC)nc1N | inconclusive: 105%
54 | Cc1ccc(O)c(NC2=C(Cl)C(=O)N(Cc3ccccc3)C2=O)c1 | inconclusive: 91%
55 | Cc1cccc(N(CC(=O)N2CCN(c3ccccc3F)CC2)S(C)(=O)=O)c1 | inconclusive: 94%
56 | Cc1nn2c(NCCCN3CCOCC3)c3c(nc2c1-c1ccccc1)CCC3 | inconclusive: 98%
57 | CCOC(=O)C1CCCN(C(c2ccccn2)c2c(C)[nH]c3ccccc23)C1 (configuration not stated) | inactive: 100%
58 | O=C(CSc1ccc2nnc(-c3ccc(F)cc3)n2n1)N1CCCc2ccccc21 | inactive: 97%
59 | Cc1c(C(=O)N2CCc3ccccc3C2)oc2ccc(S(=O)(=O)N3CCCCCC3)cc12 | active: 131% [activator]
60 | O=C1NC(=S)N/C1=C\c1ccc(N2CCOCC2)cc1 | inconclusive: 89%
61 | COc1ccc(NC(=S)Nn2cnnc2)cc1OC | inactive: 98%
62 | NC(=O)COc1ccc(C2c3c(oc4ccccc4c3=O)C(=O)N2CC2CCCO2)cc1 (configuration not stated) | inconclusive: 86%
63 | COc1ccc(-c2csc(NC(=O)c3cccs3)c2C(=O)O)cc1OC | inactive: 91%
64 | CC1CCN(CC(=O)N2CCCc3c2c(=O)oc2ccc(OCc4ccccc4)cc32)CC1 | inconclusive: 91%
65 | COc1ccc(C(c2c(C)n(C)n(-c3ccccc3)c2=O)c2c(C)n(C)n(-c3ccccc3)c2=O)cc1O | inconclusive: 96%
66 | COc1ccc(NC(=O)CO/N=C2\CCCc3nonc32)cc1 | inconclusive: 110%
67 | COc1ccccc1/C=C/C(=O)NCc1cccnc1 | inactive: 100%
68 | CCCC(=O)N1CCN(c2ccc([N+](=O)[O-])c(NC(C)c3ccccc3)c2)CC1 (configuration not stated) | inconclusive: 103%
69 | Cc1ccc(Nc2nc(N)nc(CSC(=S)N3CCOCC3)n2)cc1 | inconclusive: 103%

Row | SMILES | GTP binding activity (% of control)
70 | CN(Cc1ccccc1)C(=O)c1nn2cccnc2c1Cl | inactive: 98%
71 | Cc1ccc(-c2nc(N)n(S(C)(=O)=O)n2)cc1 | inconclusive: 89%
72 | O=C(O)C1CC(=O)N(c2ccc(F)cc2)C1 (configuration not stated) | inconclusive: 91%
73 | Nc1nc(-c2ccccc2)nn1S(=O)(=O)c1ccccc1 | inconclusive: 97%
74 | Cc1ccccc1NC(=O)c1sc(NC(=O)COc2ccccc2)c(C#N)c1C | inconclusive: 95%
75 | Cc1ccc(C)c(C(=O)COC(=O)c2ccccc2N2C(=O)C3C4CCC(C4)C3C2=O)c1 (configuration not stated) | inconclusive: 99%
76 | CCC(=O)Nc1nnc(-c2ccco2)o1 | inconclusive: 110%
77 | c1ccc(Nc2cc(-c3ccccc3)nc3ncnn23)cc1 | inconclusive: 108%
78 | O=C(NN1C(=O)C2C(C1=O)C1C=CC2C12CC2)c1ccncc1 (configuration not stated) | inconclusive: 92%
79 | O=C(NCCCO)Nc1ccc2nc(-c3ccco3)c(-c3ccco3)nc2c1 | inconclusive: 93%
80 | COc1ccc(N2C(=O)CCC(C(=O)N3CCN(c4ccccn4)CC3)C2c2ccc(F)cc2)cc1 (configuration not stated) | inconclusive: 101%
81 | CC1(C)CC(=O)/C(=C(/O)CCCN2C(=O)c3ccccc3C2=O)C(=NC(C)(C)C)C1 | inactive: 107%
82 | CC(=O)Nc1ccc(N2CC(C)(C)C2=O)cc1 | inactive: 103%
83 | N#CC(c1ccc(Cl)nn1)c1ccc(Cl)cc1Cl (configuration not stated) | active: 121% [activator]
84 | COc1ccc(NC(=O)COC(=O)c2ccc(S(=O)(=O)N(C)c3ccccc3OC)cc2)c(OC)c1 | inactive: 98%
85 | C=CC[n+]1ccc(/C=C2\C=Cc3cc(C)ccc3N2CC)c2ccccc21 | inactive: 108%
86 | C/C(=N\OCC(=O)Nc1ccc(Br)cc1)c1cccs1 | inactive: 93%
87 | O=C1C(=O)c2ccc(-c3ccccc3)cc2-c2ccccc21 | inactive: 107%
88 | CCSc1nnc(NC(=O)C2Cc3ccccc3CN2C(=O)c2ccco2)s1 (configuration not stated) | inconclusive: 95%
89 | COc1ccc2[nH]c3nc(SCC(=O)NNC(=O)c4ccc(OC)c(OC)c4)nnc3c2c1 | inconclusive: 86%
90 | COc1cc(C(=O)Nc2ccc3c(c2)OCCO3)ccc1-n1cnnn1 | inconclusive: 102%
91 | COc1cc(/C=N/NC(=O)c2cc(-c3c(C)nn(-c4ccccc4)c3C)n[nH]2)ccc1O | inconclusive: 90%
92 | CCOC(=O)N1CCN(c2c(-c3ccc(C(C)C)cc3)c(=O)c2=O)CC1 | inconclusive: 104%
